Laboratory results reported in publication PMC12040169 (PLOS Biology, 2025).
The list shows a part of the results.

test system: T1, C. trachomatis L2/434/Bu expressing GFP (CTL2-GFP); set-up: species or system HeLa; C. trachomatis total inclusion area by high-content imaging, normalised to DMSO; conditions: total inclusion area; 28.5 h, 10 µM; inhibitor
T1 construct: L2/434/Bu GFP intracellular growth in HeLa cells
In short: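 After bulk GFP and resorufin fluorescence reads, cells were fixed, stained with Hoechst and imaged by high-content microscopy. Inclusion area and number (GFP) stood in for chlamydial growth, nuclei count (Hoechst) for host cell viability. MICs were derived as for the bulk readout.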

Row | Compound | % of control remaining
1 | CC(C)(c1ccc(OC(=O)c2ccc(N)cc2)cc1)c1ccc(OC(=O)c2ccc(N)cc2)cc1 [CBK260962] | 105.059
2 | COc1cc(CN2CCN(S(=O)(=O)c3ccc(Cl)cc3)CC2)cc(OC)c1OC [CBK074499] | 88.8184
3 | Oc1ccc(-n2ncc(-c3ccc(F)cc3)n2)cc1 [CBK112904] | 88.7005
4 | Nc1nonc1C(=O)NCc1cccnc1 [CBK025695] | 43.0815
5 | O=C(Nc1nnc(C(F)(F)F)s1)c1ccc(F)c(Cl)c1 [CBK076831] | 77.8556
6 | CCN1C(=O)/C(=C/c2cc3c(cc2Cl)OCO3)NC1=S [CBK265117] | 68.4494
7 | N#Cc1ccc(NCc2ccccc2CN2CCCC2CO)nc1 (centres unmarked) [CBK304055] | 66.0397
8 | O=C(c1ccccc1)C1(CO)COCc2nccn21 (centres unmarked) [CBK009980] | 86.3517
9 | COCOc1ccc(-c2nc(-c3cccs3)cnc2N)cc1 [CBK063977] | 107.468
10 | O=C(NCCCn1cc(Cl)cn1)N1CCCN(Cc2cccs2)CC1 [CBK307279] | 56.439
11 | CC(=O)Nc1ccc(-c2ccc(C(=O)NCc3cccnc3)cn2)cc1 [CBK158842] | 79.7979
12 | CN(Cc1ccccc1)c1nccnc1-c1ccc(CO)cc1 [CBK038067] | 114.082
13 | OC1CSc2nc(-c3cnccn3)nn2C1 (centres unmarked) [CBK027096] | 95.9745
14 | CCOC(=O)C1=NN(C(=O)c2ccc(Cl)cc2)C(O)(C(C)(C)C)C1 (centres unmarked) [CBK026308] | 80.2275
15 | S=c1[nH]nnn1-c1ccc(Cl)c(Cl)c1 [CBK016327] | 108.065
16 | O=c1c2cc(Br)cc(F)c2ncn1CCC1CCCO1 (centres unmarked) [CBK306451] | 55.2557
17 | Cc1cc(CCCC(=O)N2CCCC(c3ccc(Nc4ncccn4)cn3)C2)ccc1F (centres unmarked) [CBK286003] | 126.669
18 | Fc1cc(CN2CCC3(CC2)OCCc2c3[nH]c3ccc(Br)cc23)cc(F)c1F [CBK039943] | 37.0967
19 | C(=C\c1ccccc1)/CN1CCN(c2ncccn2)CC1 [CBK261909] | 88.3722
20 | O=C1NC2(CCN(C(=O)Cc3ccc(F)cc3)CC2)Oc2ccc(-c3ccccc3)cc21 [CBK115832] | 94.2618
21 | COc1cc(Nc2cc(-c3ccc(NC(C)=O)cc3)ncn2)cc(OC)c1OC [CBK090710] | 123.513
22 | Cc1cccc(NCC2CCN(CC(=O)Nc3cc(C)on3)C2)n1 (centres unmarked) [CBK306118] | 49.7991
23 | O=C(O)C1CCN(C2C(=O)Nc3ccc(Cl)cc3C2c2ccccc2)CC1 (centres unmarked) [CBK287210] | 97.8473
24 | O=C(O)c1cccc(S(=O)(=O)Nc2nc3c(Cl)cccc3s2)c1 [CBK161135] | 98.3309
25 | NC(=O)Nc1ccc(C(=O)N2CCN(c3ccccc3)CC2)cc1 [CBK306392] | 72.1334
26 | CCc1ccccc1C(=O)N1CCCCC1CC (centres unmarked) [CBK081556] | 53.9418
27 | O=C(O)c1cccc(-c2nccnc2NCC2CC2)c1 [CBK038043] | 80.899

Row | Compound | % of control remaining
28 | O=C(Nc1nn(Cc2c(F)cccc2Cl)cc1Cl)c1cccnc1 [CBK268154] | 64.9567
29 | CCN(CC)c1c(C)nc2ccc(C(=O)NC3CCN(C)CC3)cn12 [CBK145965] | 95.811
30 | O=C(Nc1ccccc1)c1cccc(S(=O)(=O)NCc2cccs2)c1 [CBK058153] | 57.5384
31 | Cc1ccc(-c2c[nH]c([C@@H]3COCCN3Cc3csnn3)n2)cc1 [CBK289302] | 116.613
32 | O=C(c1cnc[nH]1)N1CCn2nc(C(O)Cc3ccccc3)cc2C1 (centres unmarked) [CBK307558] | 91.8103
33 | Cc1ccccc1Cn1c(CN2CCN(c3ccccc3)CC2)nc2c1c(=O)n(C)c(=O)n2C [CBK269488] | 81.0993
34 | COc1ccc(C(C)C)cc1-c1cncc(N[C@@H](CO)C(C)C)n1 [CBK065356] | 110.977
35 | O=C(O)CSc1nccn1Cc1ccccc1 [CBK262215] | 107.251
36 | Cc1ccc(S(=O)(=O)N2CC=CCC2)cc1 [CBK058443] | 81.404
37 | CN(C(=O)c1c[nH]nc1-c1ccc(CNC(=O)c2cccc(Cl)c2)cc1)c1ccccc1 [CBK285597] | 77.8031
38 | O=C(NC1CCCCC1)c1ccccc1NC(=O)C1CCCCC1C(=O)O (centres unmarked) [CBK267675] | 81.4695
39 | CC(=O)Nc1ccc(-c2ccc(COC3CCN(C(=O)c4ccc(F)cc4F)CC3)cc2)cc1 [CBK149216] | 87.8415
40 | O=C(Nc1cccnc1)c1cccc(S(=O)(=O)N2CCCC2)c1 [CBK269846] | 90.0812
41 | CCOC(=O)N1CCN(Cc2ccc(O)c(OC)c2)CC1 [CBK261873] | 100.384
42 | Cc1nccn1CC(=O)N1CCCC1(C)C(=O)NC1CCCC1 (centres unmarked) [CBK281539] | 99.1965
43 | OCCOc1ccc(OCCOc2nccnc2N2CCNCC2)cc1 [CBK014349G] | 107.798
44 | COc1c(Cl)cc(Cl)cc1CNC(C)(C)CO [CBK270212C] | 60.4125
45 | Cc1nc2nc(-c3ccc(F)cc3F)cn2nc1C [CBK284564] | 46.5479
46 | O=C(O)COc1ccc2c(=O)c(Oc3ccccc3Br)c(C(F)(F)F)oc2c1 [CBK263747] | 96.3021
47 | COC(=O)N/N=C(\C)c1ccc(Br)s1 [CBK027886] | 30.5326
48 | COc1cccc(C(=O)COC(=O)c2cc(-c3ccccc3)nc3ccc(Br)cc23)c1 [CBK265143] | 110.51
49 | CCCn1cnnc1CN(C)C(=O)NCCc1nc2ccccc2s1 [CBK307663] | 69.7611
50 | c1cn2cc(-c3ccoc3)nc(NC3CC3)c2n1 [CBK066720] | 106.248
51 | COc1cc(CNc2nn[nH]n2)ccc1OCc1ccc(F)cc1Cl [CBK269536] | 94.5321
52 | Cc1cc(Cl)ccc1OCC(=O)Nc1ccc(O)cc1C(=O)O [CBK131706] | 123.763
53 | CN(C)CCCNC(=O)c1cc(C(C)(C)C)nn1Cc1ccc(Cl)cc1Cl [CBK107286] | 71.0014
